This is one part of the list.
Columns and labels:
[1] = system: HSkMC (human skeletal muscle cells); assay: cytotoxicity call (relative viability < 0.9); conditions: 10 µM
[2] = system: HepG2; assay: cytotoxicity call (relative viability < 0.9); conditions: 10 µM
[3] = system: S. aureus RN4220; assay: growth inhibition call (relative growth <= 0.2); conditions: 50 µM

C[C@@H]1CN([C@@H](C)CO)C(=O)c2cccc(NC(=O)Nc3ccc4c(c3)OCO4)c2O[C@H]1CN(C)Cc1ccc(C(=O)Nc2ccccc2N)cc1
inactive: cytotoxicity call [1] | cytotoxicity call [2] | growth inhibition call [3]

c1ccc(NC2CCCCC2)nc1
inactive: cytotoxicity call [1] | cytotoxicity call [2] | growth inhibition call [3]

COCC(=O)N1[C@H](C(=O)N2CCOCC2)[C@@H](CO)[C@@H]2Cn3c(ccc(C4=CCCCC4)c3=O)[C@@H]21
inactive: cytotoxicity call [1] | cytotoxicity call [2] | growth inhibition call [3]

C[C@H](CO)N1C[C@H](C)[C@@H](CN(C)S(=O)(=O)c2ccc(Cl)cc2)OCCCC[C@H](C)Oc2ccc(NS(=O)(=O)c3cccs3)cc2C1=O
inactive: cytotoxicity call [1] | cytotoxicity call [2] | growth inhibition call [3]

Cc1noc(C)c1S(=O)(=O)Nc1ccc2c(c1)C(=O)N([C@H](C)CO)C[C@@H](C)[C@@H](CN(C)Cc1ccccc1)OCCCC[C@H](C)O2
inactive: cytotoxicity call [1] | cytotoxicity call [2] | growth inhibition call [3]

COc1cccc(C(=O)Nc2ccc3c(c2)C(=O)N(C)[C@H]2CC[C@@H](CC(=O)NCC(F)(F)F)O[C@H]2CO3)c1
inactive: cytotoxicity call [1] | cytotoxicity call [2] | growth inhibition call [3]

C[C@@H]1CN([C@@H](C)CO)C(=O)c2cc(Br)cnc2O[C@H]1CN(C)C(=O)Nc1ccc2c(c1)OCO2
inactive: cytotoxicity call [1] | cytotoxicity call [2] | growth inhibition call [3]

C[C@H](CO)N1C[C@H](C)[C@@H](CN(C)S(=O)(=O)c2ccccc2)OCCCC[C@H](C)Oc2ccc(NC(=O)NC3CCCCC3)cc2C1=O
inactive: cytotoxicity call [1] | cytotoxicity call [2] | growth inhibition call [3]

N[C@@H](CC(=O)O)c1cccc([N+](=O)[O-])c1
inactive: cytotoxicity call [1] | cytotoxicity call [2] | growth inhibition call [3]

C[C@@H]1CN([C@@H](C)CO)C(=O)Cc2cc(NC(=O)Cn3cnnn3)ccc2O[C@H]1CN(C)Cc1ccncc1
inactive: cytotoxicity call [1] | cytotoxicity call [2] | growth inhibition call [3]

— the antibiotic and cytotoxicity screens of Wong et al. (2023)
